# Experimental data from paper PMC4336329 (PLoS ONE, 2015).
# Hit rate of the full screen: of about 310,000 compounds, about 2,200 (0.71%) showed an effect of 50% or more. The effect is printed as a negative number. The list shows a part of the results. Where a SMILES comes first, the peptide text is derived from it. The star is where a group is joined. Boc = CC(C)(C)OC(=O)*; OtBu = CC(C)(C)O*; tBu = CC(C)(C)*
# Molecular target: human ether-à-go-go-related gene (hERG) potassium channel (human, UniProt Q12809)
# Sequence (Q12809 whole entry, looked up): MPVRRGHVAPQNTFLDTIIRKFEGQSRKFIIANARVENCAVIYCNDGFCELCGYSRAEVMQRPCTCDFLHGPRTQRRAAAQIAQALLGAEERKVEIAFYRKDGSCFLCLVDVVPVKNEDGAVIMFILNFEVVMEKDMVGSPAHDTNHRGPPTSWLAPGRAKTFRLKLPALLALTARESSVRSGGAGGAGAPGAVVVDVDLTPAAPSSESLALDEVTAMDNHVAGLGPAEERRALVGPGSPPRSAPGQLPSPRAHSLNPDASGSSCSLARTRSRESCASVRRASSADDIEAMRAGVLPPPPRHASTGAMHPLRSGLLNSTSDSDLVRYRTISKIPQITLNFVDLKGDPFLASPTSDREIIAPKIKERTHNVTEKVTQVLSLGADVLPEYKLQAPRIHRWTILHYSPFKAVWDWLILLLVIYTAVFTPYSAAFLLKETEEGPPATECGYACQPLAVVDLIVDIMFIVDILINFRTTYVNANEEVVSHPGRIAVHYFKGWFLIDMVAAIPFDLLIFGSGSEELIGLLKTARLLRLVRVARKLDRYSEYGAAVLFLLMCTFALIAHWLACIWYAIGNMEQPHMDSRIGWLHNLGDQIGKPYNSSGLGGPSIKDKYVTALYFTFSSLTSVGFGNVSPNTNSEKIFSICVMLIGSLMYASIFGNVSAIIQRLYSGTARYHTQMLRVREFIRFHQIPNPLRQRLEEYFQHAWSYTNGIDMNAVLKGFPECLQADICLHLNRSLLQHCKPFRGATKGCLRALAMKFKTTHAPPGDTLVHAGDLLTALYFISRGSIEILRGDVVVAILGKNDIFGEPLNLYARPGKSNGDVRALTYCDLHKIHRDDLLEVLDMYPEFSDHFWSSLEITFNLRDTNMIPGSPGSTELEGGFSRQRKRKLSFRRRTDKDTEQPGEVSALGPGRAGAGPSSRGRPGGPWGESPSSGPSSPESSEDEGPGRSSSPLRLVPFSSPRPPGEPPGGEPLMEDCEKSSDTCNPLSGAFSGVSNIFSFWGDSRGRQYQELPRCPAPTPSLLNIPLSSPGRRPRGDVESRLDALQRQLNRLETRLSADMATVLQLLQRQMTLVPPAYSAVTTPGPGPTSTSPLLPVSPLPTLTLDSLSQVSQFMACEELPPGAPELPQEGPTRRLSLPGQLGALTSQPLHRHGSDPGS
# Assay: primary screen, population patch clamp on CHO cells stably expressing hERG
row,Compound,"hERG current change (%, negative = inhibition) at 1uM"
1,N#Cc1ccccc1COC(=O)c1cccnc1N,12.7%
2,COc1ccc2sc(-c3ccc(N(C)C)cc3)c(-c3cnc(OC)nc3)c2c1,16.2%
3,CC(=O)OC1c2ccccc2C(=O)N1Cc1ccccc1Cl (centres unmarked),4.79%
4,CCCCC(=O)Nc1ccc(C(=O)Nc2nc(CC(=O)OCC)cs2)cc1,-8.18%
5,CC(C)(C)OCC(NC(=O)C(CC(N)=O)NC(=O)OC(C)(C)C)C(=O)OC(C)(C)C (stereo not drawn) (Boc-Asn-Ser(tBu)-OtBu; configuration not given here),4.26%
6,COc1ccc2[nH]c(=O)c(CNc3ccccc3OC)cc2c1,4.55%
7,Cc1c(/C=N/Nc2nc3ccccc3[nH]2)c2ccccc2n1C,13.6%
8,CSCCC(C(=O)OC1CCOC1=O)N1C(=O)c2ccccc2C1=O (centres unmarked),8.69%
9,CN(CC(=O)Nc1c(Cl)cccc1Cl)C(=O)c1n[nH]c2ccccc12,6.39%
10,CCC(C)N(C(=O)COC(=O)C1C(C(=O)OC)=C(C)NC(C)=C1C(=O)OC)C1CCS(=O)(=O)C1 (centres unmarked),7.63%
11,CCCOc1ccc(C(=O)OCC(=O)c2c(N)n(C)c(=O)n(C)c2=O)cc1OC,13.4%
12,O=c1[nH]c2c(s1)C=Nc1ccccc1N2,9.22%
13,Cn1cc([N+](=O)[O-])c(C(=O)Nc2ccc(-c3nc4ccccc4[nH]3)cc2)n1,15.8%
14,COc1ccc2c(c1)C(=NN)c1cc(OC)ccc1-2,10.6%
15,COc1ccc(NC(=O)C2=C(C)NC(=O)NC2c2cccs2)c(OC)c1 (centres unmarked),11.9%
16,COC1=C/C(=C/c2c(N)n3cc(C)sc3nc2=O)C=CC1=O,8.67%
17,O=S(=O)(Cc1ccccc1)Nc1ccccc1,15.7%
18,O=C(Nc1cccc(Cl)c1)Nc1ccccc1C(=O)NCc1ccco1,9.74%
19,CC(=O)Nc1ccc(S(=O)(=O)NCc2ccc(C(=O)NCCCN3CCC(C)CC3)cc2)cc1,16.7%
20,CC(NCc1ccc(F)cc1)C(=O)NC1CCCCC1.O=C(O)C(=O)O (centres unmarked),11.5%
21,Cc1ccc(NS(=O)(=O)c2ccc(C(=O)NCC(c3ccco3)N3CCCCC3)cc2)cc1 (centres unmarked),17.5%
22,CCSc1nnc(NC(=O)Cc2ccccc2OC)s1,10.4%
23,Cc1cc(NC(=S)N(Cc2ccc(Br)cc2)Cc2ccc(C(=O)O)cc2)ccc1Cl,2.01%

row,Compound,"hERG current change (%, negative = inhibition) at 1uM"
1,CN1CCN(NC(=O)Nc2cccc(Cl)c2Cl)CC1,11%
2,O=C(Nc1ccc(O)c2c(=O)cc(-c3cccc(Cl)c3)oc12)c1ccccc1Cl,7.8%
3,O=C(Cc1cccs1)Nc1cccc(C(=O)Nc2ccc(C(=O)O)cc2)c1,14%
4,CC(C)OC(=O)c1cccnc1N1CCN(c2ccc(F)cc2)CC1,10.8%
5,O=C(CCc1ccccc1)Nc1cc(NC(=O)CCc2ccccc2)cc(C(=O)O)c1,-6.24%
6,CC(Cc1cccs1)NC(=O)c1cccc(Cl)c1 (centres unmarked),0.335%
7,O=C(Nc1ccccc1N1CCOCC1)c1ccc(S(=O)(=O)NCc2ccco2)cc1,4.55%
8,COc1ccccc1CNC(=O)c1ccc2c(=O)n(CCCN3CCCC3=O)c(=S)[nH]c2c1,15%
9,N#Cc1nc(-c2cccs2)oc1NCc1ccc2c(c1)OCO2,10.3%
10,CCN(CC)CCCN=C(N)N.O=S(=O)(O)O,3.42%
11,CCCN(CC1CC1)C(=O)COc1ccccc1C(=O)NCc1ccccc1,-8.29%
12,COc1cccc2c(=O)n(CC(=O)Nc3ccccc3F)ccc12,14.4%
13,CC(C)n1nc(C(=O)NNC(=O)c2ccc(OC(F)F)cc2)c2ccccc2c1=O,-33.9%
14,CC(=O)N1CCN=C1SCc1cccc(C(F)(F)F)c1,2.61%
15,Cc1cc(C)n2c(SCC(C)C)nnc2n1,12.6%
16,CC(C)(C)n1ncc(Oc2ccccc2[N+](=O)[O-])c(Cl)c1=O,8.26%
17,COCCNC(=O)C(c1c[nH]c2ccccc12)N(C(=O)c1snc(C(N)=O)c1N)c1cccc(OC)c1 (centres unmarked),13.4%
18,O=C(NCCCn1ccnc1)C(=O)NCC1OCCCN1S(=O)(=O)c1ccccc1 (centres unmarked),6.93%
19,O=c1c2cnn(-c3ccccc3)c2ncn1CCc1ccccc1,13.9%
20,Cl.Fc1ccc(-c2ccc(CNCc3ccccn3)o2)cc1Cl,3.85%
21,CC1CN(C(=S)Nc2cccc(Cl)c2Cl)CC(C)O1 (centres unmarked),2.73%
22,CCCNC(=O)c1ccc2snnc2c1,4%
23,CCOC(=O)/C(C(=O)Nc1ccccc1Br)=C1/NC(C)(C)Cc2ccccc21,2.1%

row,Compound,"hERG current change (%, negative = inhibition) at 1uM"
1,Cc1csc2ncc(C(=O)NCCC(c3ccccc3)c3ccccc3)c(=O)n12,15%
2,CCN(CCn1cccn1)C(=O)CCc1nnc(-c2ccccc2)o1,4.27%
3,CSc1ccc(CCNC(=O)CCc2nnc3ccc(N4CCCC4)nn23)cc1,6.95%
4,CCN(CC(=O)Nc1c(F)cccc1F)C(=O)CNC(=O)C1CCCCC1,8.44%
5,COc1ccc(-c2nc(C#N)c(NCc3ccccc3Cl)o2)cc1,7.91%
6,Cc1ccc2nc(NC(=O)C3CCCN(S(=O)(=O)c4cnc[nH]4)C3)sc2c1 (centres unmarked),-4.75%
7,COc1cccc(COCC(O)CN2CCC(C(N)=O)CC2)c1 (centres unmarked),13.1%
8,Cc1cccc(C)c1NC(=O)CNC(=O)c1ccc(COc2ccccc2)o1,-0.44%
9,CCOC(=O)c1ccc(NC(=O)CSc2nccn2C)cc1,10.6%
10,Cc1cc(C(F)(F)F)nn2cnnc12,-1.32%
11,COc1ccc(OC)c(Nc2nc(-c3sc(NC(=O)CC(C)C)nc3C)cs2)c1,17.6%
12,O=C(c1ccccc1)N1CCN(c2ncnc3c(-c4ccccc4)nsc23)CC1,4.11%
13,CSc1nnc(C)c(/C=C/Nc2ccc(F)cc2)n1,14.1%
14,CCS(=O)(=O)N1CCN(Cc2c[nH]c3ccccc23)CC1.O=C(O)C(=O)O,12.3%
15,CCc1nc2ccc(C)cc2c(C(=O)Oc2cccc3cccnc23)c1C,15.8%
16,COc1cccc(/C=C/C(=O)OCC(=O)Nc2cccc(S(=O)(=O)N3CCOCC3)c2)c1OC,0.609%
17,COc1ccccc1NC(=O)CCCC(=O)OCC(F)(F)C(F)F,9.89%
18,CC(C)C(=O)Nc1nnc(SCC(=O)NCc2ccco2)s1,-5.44%
19,N#CCCSc1nc(N2CCOCC2)c2c(c1C#N)CCCC2,6.7%
20,CN1CCN(CCCNC(=O)c2cc3c(-c4ccc(Cl)cc4)nn(C)c3s2)CC1,0.447%
21,CC(=O)C1C(c2cccc(F)c2)NC(=O)NC1(O)C(F)(F)F (centres unmarked),5.77%
22,Cc1ccc(Nc2nc(N/N=C/c3c[nH]c4ccccc34)nc(N3CCOCC3)n2)cc1,3.38%
23,CC(C)NC(=O)C(=O)NCCCN1CCOCC1,21.4%

row,Compound,"hERG current change (%, negative = inhibition) at 1uM"
1,CN1CCN(C2CCCCC2NS(=O)(=O)c2ccccc2)CC1 (centres unmarked),7.03%
2,Cn1c(=O)oc2cc(S(=O)(=O)NCc3ccncc3)ccc21,10.9%
3,Cc1c[n+]([O-])n(-c2ccc(C(=O)O)cc2)n1,4.51%
4,O=C(NCCc1ccccc1)c1ccco1,4.6%
5,COC(=O)c1c(NC(=O)c2ccc(C)cc2)csc1C,8.57%
6,NC(=O)Cc1nc(-c2ccc([N+](=O)[O-])cc2)cs1,9%
7,CCn1c(C)nc2cc(C(=O)NNS(=O)(=O)c3ccc(C)c(C)c3)ccc21,2.45%
8,CCOC(=O)c1cnn(CCOC(=O)c2cccc(F)c2)c1NC(=O)c1cccc(F)c1,25.2%
9,O=c1[nH]c2ccccc2c(O)c1-c1ccccc1[N+](=O)[O-],19.1%
10,O=C(CN1CCN(c2ccc(Cl)cc2)CC1)Nc1ccc(F)cc1,-28.1%
11,CC1Cc2ccccc2N1CC(=O)Nc1cccc(S(N)(=O)=O)c1 (centres unmarked),6.47%
12,CC(C)NC(=O)c1cccc2c1-c1ccccc1C2=O,9.42%
13,COC(=O)C1=C(C)NC(C)=C(C(=O)OC)C1C(=O)OC(C)C(=O)c1ccccc1 (centres unmarked),4.45%
14,CCN(CC)C(=O)CCn1nc(-c2ccc(C)cc2)c2ccccc2c1=O,-13.5%
15,Cc1cc(S(=O)(=O)NCc2ccccn2)c(Cl)cc1Cl,10.4%
16,NC(=O)C1CC(=O)N(c2ccc(OCc3ccc(Cl)cc3)cc2)C1 (centres unmarked),-3.97%
17,Fc1ccc(-c2nc3c(-c4ccc(Cl)cc4)cnn3cc2CCN2CCOCC2)cc1,3.56%
18,CCN(CC(=O)Nc1ccc(NC(C)=O)cc1)C(=O)c1ccc2c(c1)OCCO2,7.34%
19,Cc1cc(Cl)ccc1OC(C)C(=O)NCCCCc1ccccc1 (centres unmarked),7.31%
20,COc1ccc(NC(=O)C(NC(=O)Cc2cccs2)c2ccccc2)cc1 (centres unmarked),16.6%
